Measurements published in PMC9342770.
These are yes or no findings as the source states them, for the method shown. Some results given as binding are weak or reduced against the parent protein; the word gives no strength.

B1: PRD3 (protein, UniProt Q0WWX5 1-449)
chain: MKMNINKACDLKSISVFPPNLRRSAEPQASQQLRSQQSQQSFSQGPSSSQRGCGGFSQMTQSSIDELLINDQRFSSQERDLSLKKVSSCLPPINHKREDSQLVASRSSSGLSRRWSSASIGESKSQISEELEQRFGMMETSLSRFGMMLDSIQSDIMQANRGTKEVFLETERIQQKLTLQDTSLQQLRKEQADSKASLDGGVKFILEEFSKDPNQEKLQKILQMLTTIPEQVETALQKIQREICHTFTREIQVLASLRTPEPRVRVPTAPQVKAKENLPEQRGQAAKVLTSLKMPEPRVQVPAAPQAKENFPEQRGPVAKSNSFCNTTLKTKQPQFPRNPNDASARAVKPYLSPKIQVGCWKTVKPEKSNFKKRATRKPVKSESTRTQFEQCSVVIDSDEEDIDGGFSCLINENTRGTNFEWDAEKETERILRTARRTKRKFGNPIIIN
B2: PCH2 (protein, UniProt Q8H1F9 1-467)
chain: MVEDPIPLPNASMEVSYQNPIEAATIPVQIAVAEPVATPNPPPCLHENKFLVSVEVCLKPSSTARLEDVQRAVERMLENRSMSYADGLVLIPADDLFLVDNVQRICICDTEEWVKNNDVLLFWQVKPVVHTFQLIEEGPCEDLCADGQPASFNEWILPAKEFDGLWESLIYESGLKQRLLRYAASALLFTQKGVNPNLVSWNRIILLHGPPGTGKTSLCKALAQKLSIRCNSRYPHCQLIEVNAHSLFSKWFSESGKLVAKLFQKIQEMVEEDGNLVFVLIDEVESLAAARKAALSGSEPSDSIRVVNALLTQMDKLKSAPNVIILTTSNITTAIDVAFVDRADIKAYVGPPTLHVRYEILRSCVEELISKGIISSFQGCDGLSIPSFSSLKEKLSESEVHDTNTVPWFCKQLIEAAKGCEGLSGRSLRKLPFLAHAALADPYSHDPSNFLCTMIETAKREKSEQPE

How the values were obtained:
ASY1 (Arabidopsis) [1] = biological target: T1, ASY1 (Arabidopsis) (UniProt F4HRV8); assay: condition: only on the most stringent medium SD -LTHA (lacking leucine, tryptophan, histidine and adenine); two-hybrid; GAL4 yeast two-hybrid in Y2HGold; AD (pGADT7) and BD (pGBKT7) fusions co-transformed; growth on high-stringency medium SD-LTHA (lacking leucine, tryptophan, histidine and adenine); 30°C; serial drop dilutions
T1 sequence: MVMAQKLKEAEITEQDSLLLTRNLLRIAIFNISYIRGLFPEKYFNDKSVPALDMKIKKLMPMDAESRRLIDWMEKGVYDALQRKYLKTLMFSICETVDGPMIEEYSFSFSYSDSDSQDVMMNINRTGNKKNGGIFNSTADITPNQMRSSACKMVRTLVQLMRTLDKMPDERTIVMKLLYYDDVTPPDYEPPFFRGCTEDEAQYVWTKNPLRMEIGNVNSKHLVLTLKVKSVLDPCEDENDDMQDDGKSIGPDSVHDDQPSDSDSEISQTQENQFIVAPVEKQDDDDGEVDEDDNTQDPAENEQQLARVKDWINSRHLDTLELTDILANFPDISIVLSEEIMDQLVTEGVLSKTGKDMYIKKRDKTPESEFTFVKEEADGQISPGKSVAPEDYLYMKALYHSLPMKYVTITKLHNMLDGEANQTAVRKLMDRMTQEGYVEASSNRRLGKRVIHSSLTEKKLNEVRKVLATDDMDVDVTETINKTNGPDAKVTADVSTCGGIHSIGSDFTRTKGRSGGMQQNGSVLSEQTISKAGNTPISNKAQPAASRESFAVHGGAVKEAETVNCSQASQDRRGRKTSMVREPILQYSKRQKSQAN

PCH2 (Arabidopsis) [2] = biological target: T2, PCH2 (Arabidopsis) (UniProt Q8H1F9); assay: two-hybrid; GAL4 yeast two-hybrid in Y2HGold; AD (pGADT7) and BD (pGBKT7) fusions co-transformed; growth on high-stringency medium SD-LTHA (lacking leucine, tryptophan, histidine and adenine); 30°C; serial drop dilutions
T2 sequence: B2 chain

ASY3 (Arabidopsis) [3] = biological target: T3, ASY3 (Arabidopsis) (UniProt Q0WR66); assay: as above
T3 sequence: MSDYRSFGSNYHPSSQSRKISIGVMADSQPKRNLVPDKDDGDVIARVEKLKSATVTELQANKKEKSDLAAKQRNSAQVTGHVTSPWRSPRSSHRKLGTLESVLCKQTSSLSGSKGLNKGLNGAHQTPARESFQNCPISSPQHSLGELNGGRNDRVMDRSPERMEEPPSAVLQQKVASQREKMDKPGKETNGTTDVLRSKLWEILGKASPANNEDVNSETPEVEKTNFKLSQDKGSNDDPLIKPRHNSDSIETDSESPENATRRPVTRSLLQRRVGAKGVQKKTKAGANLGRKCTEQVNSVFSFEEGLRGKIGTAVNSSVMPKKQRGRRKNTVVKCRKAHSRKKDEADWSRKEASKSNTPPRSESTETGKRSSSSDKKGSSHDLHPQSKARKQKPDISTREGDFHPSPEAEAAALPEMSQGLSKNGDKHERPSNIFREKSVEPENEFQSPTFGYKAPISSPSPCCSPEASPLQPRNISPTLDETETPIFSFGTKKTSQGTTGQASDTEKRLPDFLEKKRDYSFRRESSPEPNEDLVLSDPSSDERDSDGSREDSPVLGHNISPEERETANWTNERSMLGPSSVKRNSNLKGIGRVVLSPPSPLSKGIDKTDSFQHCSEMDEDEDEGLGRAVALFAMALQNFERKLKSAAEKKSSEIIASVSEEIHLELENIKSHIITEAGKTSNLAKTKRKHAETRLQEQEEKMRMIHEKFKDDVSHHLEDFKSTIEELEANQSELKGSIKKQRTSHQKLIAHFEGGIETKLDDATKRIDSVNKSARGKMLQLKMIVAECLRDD

PRD3 (Arabidopsis) = PRD3 (Arabidopsis) (UniProt Q0WWX5); assay: two-hybrid; GAL4 yeast two-hybrid in Y2HGold; AD (pGADT7) and BD (pGBKT7) fusions co-transformed; growth on low-stringency medium SD-LTH (lacking leucine, tryptophan and histidine); 30°C; serial drop dilutions
ASY1 (Arabidopsis) [4] = biological target: T1, ASY1 (Arabidopsis); assay: as above
PCH2 (Arabidopsis) [5] = biological target: T2, PCH2 (Arabidopsis); assay: as above
ASY3 (Arabidopsis) [6] = biological target: T3, ASY3 (Arabidopsis); assay: as above

| Binder | binding (ASY1 (Arabidopsis) [1]) | binding (PCH2 (Arabidopsis) [2]) | binding (ASY3 (Arabidopsis) [3]) | binding (PRD3 (Arabidopsis)) | binding (ASY1 (Arabidopsis) [4]) | binding (PCH2 (Arabidopsis) [5]) | binding (ASY3 (Arabidopsis) [6]) |
| --- | --- | --- | --- | --- | --- | --- | --- |
| B1 | no binding | binds | binds | binds | binds weakly | binds | binds |
| B2 |  |  |  |  |  | binds |  |
